{"source": "the supplement of paper PMC8728848", "experiment_in_all_cases": "glycan array binding signal (z-score within array); higher = stronger binding", "conditions_in_all_cases": "glycan notation: IUPAC condensed, linker removed", "key": {"[1]": {"molecular_target": "Neu5Ac(a2-3)Gal(b1-4)GlcNAc(b1-6)GalNAc", "summary_of_the_method": "(§1)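 The Consortium for Functional Glycomics database supplied 3228 glycan arrays, of which those lacking an available protein sequence were dropped. The binding signal, a within-array Z-score, was averaged across arrays of the same protein sequence and across linkers. Negative scores can be read as non-binding.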"}, "[2]": {"molecular_target": "Neu5Ac(a2-3)Gal(b1-4)GlcNAc(b1-6)[Gal(b1-3)]GalNAc", "summary_of_the_method": "as §1"}, "[3]": {"molecular_target": "Neu5Ac(a2-3)Gal(b1-4)GlcNAc(b1-6)[Neu5Ac(a2-3)Gal(b1-3)]GalNAc", "summary_of_the_method": "as §1"}, "[4]": {"molecular_target": "Neu5Ac(a2-3)Gal(b1-4)GlcNAc6S", "summary_of_the_method": "as §1"}, "[5]": {"molecular_target": "Neu5Ac(a2-3)Gal(b1-4)[Fuc(a1-3)]GlcNAc", "summary_of_the_method": "as §1"}, "[6]": {"molecular_target": "Neu5Ac(a2-3)Gal(b1-4)[Fuc(a1-3)]GlcNAc(b1-2)Man", "summary_of_the_method": "as §1"}, "[7]": {"molecular_target": "Neu5Ac(a2-3)Gal(b1-4)[Fuc(a1-3)]GlcNAc(b1-3)Gal", "summary_of_the_method": "as §1"}, "[8]": {"molecular_target": "Neu5Ac(a2-3)Gal(b1-4)[Fuc(a1-3)]GlcNAc(b1-3)Gal(b1-4)GlcNAc", "summary_of_the_method": "as §1"}, "[9]": {"molecular_target": "Neu5Ac(a2-3)Gal(b1-4)[Fuc(a1-3)]GlcNAc(b1-3)Gal(b1-4)[Fuc(a1-3)]GlcNAc(b1-3)Gal(b1-4)[Fuc(a1-3)]GlcNAc", "summary_of_the_method": "as §1"}, "[10]": {"molecular_target": "Neu5Ac(a2-3)Gal(b1-4)[Fuc(a1-3)]GlcNAc(b1-3)GalNAc", "summary_of_the_method": "as §1"}, "[11]": {"molecular_target": "Neu5Ac(a2-3)Gal(b1-4)[Fuc(a1-3)]GlcNAc(b1-6)[Gal(b1-3)]GalNAc", "summary_of_the_method": "as §1"}, "[12]": {"molecular_target": "Neu5Ac(a2-3)Gal(b1-4)[Fuc(a1-3)]GlcNAc(b1-6)[Neu5Ac(a2-3)Gal(b1-3)]GalNAc", "summary_of_the_method": "as §1"}, "[13]": {"molecular_target": "Neu5Ac(a2-3)Gal(b1-4)[Fuc(a1-3)]GlcNAc6S", "summary_of_the_method": "as §1"}, "[14]": {"molecular_target": "Neu5Ac(a2-3)Gal6S(b1-4)GlcNAc", "summary_of_the_method": "as §1"}, "[15]": {"molecular_target": "Neu5Ac(a2-3)Gal6S(b1-4)[Fuc(a1-3)]GlcNAc", "summary_of_the_method": "as §1"}, "[16]": {"molecular_target": "Neu5Ac(a2-3)GalNAc", "summary_of_the_method": "as §1"}, "[17]": {"molecular_target": "Neu5Ac(a2-3)GalNAc(b1-4)GlcNAc", "summary_of_the_method": "as §1"}, "[18]": {"molecular_target": "Neu5Ac(a2-3)[GalNAc(b1-4)]Gal(b1-4)Glc", "summary_of_the_method": "as §1"}, "[19]": {"molecular_target": "Neu5Ac(a2-3)[GalNAc(b1-4)]Gal(b1-4)GlcNAc", "summary_of_the_method": "as §1"}, "[20]": {"molecular_target": "Neu5Ac(a2-3)[GalNAc(b1-4)]Gal(b1-4)GlcNAc(b1-3)GalNAc", "summary_of_the_method": "as §1"}, "[21]": {"molecular_target": "Neu5Ac(a2-3)[Neu5Ac(a2-6)]GalNAc", "summary_of_the_method": "as §1"}, "[22]": {"molecular_target": "Neu5Ac(a2-6)Gal", "summary_of_the_method": "as §1"}, "[23]": {"molecular_target": "Neu5Ac(a2-6)Gal(b1-3)GlcNAc(b1-3)[Gal(b1-4)GlcNAc(b1-6)]Gal(b1-4)Glc", "summary_of_the_method": "as §1"}}, "note": "This is one part of the list.", "data": [{"binder": "PX14343B-bfa-546-20-546 (Bacteroides fragilis) (protein) CDLERYPLTDLSEETFWNSESNAELALTSLYRGSLTDGVEYNPSDWWSYHGMIMMEHLSDNAFDRRGENNPFFKISSGNLTADNAFIKRYWETSYKRIGYCNRFLVGIQNSSESEKKTRMIAEARFLRATQYFYLASYFKNVPLVENVLTGEEANNVTKTSQADILKWCVTEFTAAAADLPRFSAIPAGEAGRACKQAALAFLGRTCMLQKDWKSGAKAFHDIMELGDNAINANYQELFYPSTGTSNKENIFYIQYLENYLGTGLPQHALSAKDGGWSLVNPAADLYESYEFKDGTPFSYDDPRYDPSNLGKDRDPRLDYTIYYNGAIFMGTEYKMSPDYSAAKKEKLDYTSEASRTGFMMRKYFEESTPINDVQSANGLTPVIRYAEVLLGYLECLVEDNQTITQGILDETINAVRGRASVNMPPVTEVTPAKLREIVRHERRIELAMEGIRYWDIMRWGIAHEVLSQKIWGAPYPGSTQYATTTKEVDPTGNYRWYVGKRAFRNPTDYTWPIPQSEQNINPNLRD", "values": [{"measurement": "glycan array binding signal (z-score)", "setting": "[1]", "value": -0.125}, {"measurement": "glycan array binding signal (z-score)", "setting": "[2]", "value": -0.124}, {"measurement": "glycan array binding signal (z-score)", "setting": "[3]", "value": -0.128}, {"measurement": "glycan array binding signal (z-score)", "setting": "[4]", "value": -0.104}, {"measurement": "glycan array binding signal (z-score)", "setting": "[5]", "value": -0.118}, {"measurement": "glycan array binding signal (z-score)", "setting": "[6]", "value": -0.137}, {"measurement": "glycan array binding signal (z-score)", "setting": "[7]", "value": -0.111}, {"measurement": "glycan array binding signal (z-score)", "setting": "[8]", "value": -0.107}, {"measurement": "glycan array binding signal (z-score)", "setting": "[9]", "value": -0.123}, {"measurement": "glycan array binding signal (z-score)", "setting": "[10]", "value": -0.105}, {"measurement": "glycan array binding signal (z-score)", "setting": "[11]", "value": -0.121}, {"measurement": "glycan array binding signal (z-score)", "setting": "[12]", "value": -0.092}, {"measurement": "glycan array binding signal (z-score)", "setting": "[13]", "value": -0.136}, {"measurement": "glycan array binding signal (z-score)", "setting": "[14]", "value": -0.135}, {"measurement": "glycan array binding signal (z-score)", "setting": "[15]", "value": -0.129}, {"measurement": "glycan array binding signal (z-score)", "setting": "[16]", "value": -0.126}, {"measurement": "glycan array binding signal (z-score)", "setting": "[17]", "value": -0.127}, {"measurement": "glycan array binding signal (z-score)", "setting": "[18]", "value": -0.132}, {"measurement": "glycan array binding signal (z-score)", "setting": "[19]", "value": -0.12}, {"measurement": "glycan array binding signal (z-score)", "setting": "[20]", "value": -0.114}, {"measurement": "glycan array binding signal (z-score)", "setting": "[21]", "value": -0.12}, {"measurement": "glycan array binding signal (z-score)", "setting": "[22]", "value": -0.126}, {"measurement": "glycan array binding signal (z-score)", "setting": "[23]", "value": -0.116}]}]}
